The other results are listed elsewhere or left out. The full chains were built here from the parent and the listed change. Values near 0.05 are background.
B1: TEV protease; numbered along this chain (parent)
chain: MGESLFKGPRDYNPISSSICHLTNESDGHTTSLYGIGFGPFIITNKHLFRRNNGTLVVQSLHGVFKVKDTTTLQQHLVDGRDMIIIRMPKDFPPFPQKLKFREPQREERICLVTTNFQTKSMSSMVSDTSCTFPSGDGIFWKHWIQTKDGQCGSPLVSTRDGFIVGIHSASNFTNTNNYFTSVPKNFMELLTNQEAQQWVSGWRLNADSVLWGGHKVFMVKPEEPFQPVKEATQL

Variants of: B1
Assay: raw area under fraction-flipped curve 0-4 h after induction (AUC4h, not background-subtracted), DNA-recorder readout of cleavage of the substrate (dimensionless); higher = more cleavage of the substrate by the protease variant
Conditions: temperature: 34 °C; time window: 0-4 h after rhamnose induction
Protocol: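 In vivo DNA recorder in E. coli TOP10(DE3) ΔrhaA at 34 °C. Each TEVp single-site mutant (parent TEVp 0) is paired with a single-site variant of the 7-mer TEVs (canonical ENLYFQ|S). The substrate sits between flexible linkers in a Bxb1-sfGFP-TEVs-SsrA fusion, so cleavage stabilises Bxb1 and speeds flipping of a recombination array, read by NGS. The value is the raw area under the fraction-flipped curve over 0-4 h after rhamnose induction (AUC4h), with ≥20 reads per time point. It is not background-subtracted; inactive controls average about 0.047.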
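Note: Bxb1 expression induced with 0.2% (w/v) L-rhamnose at OD600 near 0.5, cultures sampled hourly, flipped fraction per protease–substrate barcode pair counted by paired-end Illumina sequencing.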

| Variant | area with substrate ENLAFQS | area with substrate ENLCFQS | area with substrate ENLDFQS | area with substrate ENLEFQS | area with substrate ENLFFQS | area with substrate ENLIFQS | area with substrate ENLKFQS | area with substrate ENLNFQS | area with substrate ENLPFQS | area with substrate ENLQFQS | area with substrate ENLRFQS | area with substrate ENLSFQS | area with substrate ENLVFQS | area with substrate ENLGFQS | area with substrate ENLLFQS | area with substrate ENLMFQS | area with substrate ENLWFQS | area with substrate ENLHFQS | area with substrate ENLTFQS |
| --- | --- | --- | --- | --- | --- | --- | --- | --- | --- | --- | --- | --- | --- | --- | --- | --- | --- | --- | --- |
| K46C | 0.0602 | 0.0669 | 0.0639 | 0.0621 | 0.0783 | 0.0809 | 0.0688 | 0.0497 | 0.0534 | 0.033 | 0.0639 | 0.0604 | 0.0655 |  |  |  |  |  |  |
| K46T | 0.059 |  | 0.0606 | 0.0582 | 0.0955 |  | 0.0626 | 0.082 | 0.0657 |  |  | 0.0594 | 0.0696 | 0.0576 | 0.0595 | 0.0634 | 0.0603 |  |  |
| K46M | 0.0498 |  |  | 0.0652 | 0.0653 | 0.0461 | 0.069 | 0.0646 | 0.0464 | 0.0566 | 0.0697 | 0.0478 | 0.0524 |  | 0.0607 |  |  | 0.065 |  |
| L61W | 0.0752 |  | 0.0643 |  | 0.0783 | 0.084 | 0.0728 | 0.0802 |  |  | 0.0682 |  |  |  |  |  | 0.0667 | 0.0586 |  |
| T70E | 0.0421 |  | 0.0796 | 0.0861 | 0.0665 |  |  | 0.0658 | 0.0441 |  |  | 0.0593 | 0.0884 |  |  |  |  | 0.0486 | 0.0543 |
| T70I | 0.0645 |  | 0.0672 | 0.0595 | 0.0843 | 0.0692 | 0.0603 | 0.0632 |  | 0.0698 | 0.0751 | 0.062 |  |  | 0.0639 | 0.0712 |  | 0.0693 |  |
| S60H | 0.0667 | 0.0713 | 0.0739 | 0.0778 | 0.107 |  | 0.0867 | 0.0556 |  | 0.0701 |  | 0.0543 | 0.117 |  | 0.0915 |  | 0.0624 | 0.113 |  |
| S60K | 0.0685 | 0.0668 | 0.0662 |  | 0.0692 |  |  | 0.0584 |  | 0.0847 |  |  |  |  |  | 0.0625 | 0.0612 | 0.0205 |  |
| T55S | 0.0697 | 0.0711 | 0.0678 | 0.114 | 0.0793 | 0.0775 | 0.0662 | 0.0717 |  |  | 0.0763 | 0.0655 | 0.0937 | 0.0496 |  | 0.0601 | 0.0806 | 0.0661 |  |
| G54V | 0.0601 | 0.0598 | 0.067 |  | 0.0662 | 0.0392 | 0.0618 | 0.0546 | 0.062 | 0.0558 | 0.0549 | 0.0665 |  |  | 0.0423 |  | 0.0585 | 0.054 |  |
| T44P | 0.0458 | 0.0345 | 0.0432 | 0.0478 | 0.0523 |  | 0.048 | 0.035 | 0.0319 | 0.0333 | 0.0495 | 0.0358 | 0.0406 |  | 0.0455 | 0.043 | 0.0387 | 0.043 |  |
| F41I | 0.0589 | 0.0624 | 0.063 | 0.0631 |  | 0.0764 | 0.0709 | 0.0656 | 0.0627 |  | 0.0748 | 0.07 | 0.0714 |  | 0.0742 | 0.0647 |  | 0.078 |  |
| I42L | 0.048 |  | 0.0613 | 0.0601 | 0.0936 | 0.0735 | 0.0719 | 0.0775 | 0.0698 |  | 0.072 |  | 0.0797 |  | 0.0643 | 0.0726 | 0.0808 | 0.0766 |  |

Reference: the supplement of paper PMC12217912
